The text below walks through data of US4076815A, “Quinoxaline compound and composition, process for preparing compound, and method of combatting cholera therewith” (Istituto Chemioterapico Italiano, S.p.A., priority 1977, dated 1978).

Series [1] in a line: Acute toxicity in the rabbit by esophageal administration. Type of series: in vivo.
A short description of series [2]: Acute toxicity in the guinea pig by esophageal administration. The series is classed as in vivo.
Series [3] in a line: Subacute toxicity in the mouse, gastric gavage 15 days. The note with it: 24 hrs. after last dose.
Series [4] in a line: Acute toxicity in the rat. The note with it: for Dead/Treated within 21 days: first experiment; for Dead/Treated within 7 days: second experiment.

Turning to `Nc1nccc(C=Cc2c[n+]([O-])c3ccccc3[n+]2[O-])n1` [CO-1, 2-[2-(2-amino-4-pyrimidinyl)ethenyl]-quinoxaline 1,4-dioxide], the “Dead/Treated within 7 days” value was 0/2 in series [1] (500 mg/kg); 0/4 in series [1] (1000 mg/kg); 0/2 in series [1] (2000 mg/kg); 0/4 in series [4] (female, esophageal, 4000 mg/kg); 0/4 in series [4] (female, intraperitoneal, 500 mg/kg); 0/4 in series [4] (male, esophageal, 4000 mg/kg). Further, the “Dead/Treated within 7 days” value in series [4] (male, intraperitoneal, 500 mg/kg) is on record as 2/4. In addition, the “Dead/Treated within 21 days” value was 0/4 in series [2] (500 mg/kg); 1/4 in series [2] (1000 mg/kg); 5/6 in series [2] (2000 mg/kg); 6/6 in series [2] (4000 mg/kg); 2/4 in series [4] (female, endoperitoneal, 500 mg/kg); 0/4 in series [4] (female, esophageal, 4000 mg/kg). In addition, the “Dead/Treated within 21 days” value in series [4] (male, endoperitoneal, 500 mg/kg) is listed as 1/4; in series [4] (male, esophageal, 4000 mg/kg), 0/4. For the same compound, the SGOT in series [3] (CO-1 in adraganth gum) came to 132 Units/ml; in series [3] (CO-1 in water), 124 Units/ml.
